# The campaign covered roughly 310,000 compounds. About 18,000 (5.8%) were called active. Inconclusive means that the source gave no clear call. Such entries were picked first, then a sample of the others. The call rests on the fitted dose curve; in most records, active means well fitted inhibition curve with a large enough effect; inconclusive means small, poorly fitted or top-dose-only effect, or another doubt; inactive means no such curve, though single readings can be large or run the other way. Potencies of inconclusive entries are left out as doubtful fits.
# Assay: Primary qHTS for delayed death inhibitors of the malarial parasite plastid, 48 hour incubation
# Details: P. falciparum luciferase growth in erythrocytes; series mostly up to 28.7 µM
# Outline: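 Parasite viability was followed by luminescence of a genomically integrated firefly luciferase. Cultures held 0.1% parasitemia at 2% hematocrit (final), incubated under 5% CO2 at 37 C.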
# Potency means the concentration at half of the fitted maximal effect; tags describe the fitted curve by direction and shape.
row,Structure (SMILES),Potency
1,CCS(=O)(=O)n1nc(-c2ccccc2)nc1SCc1ccccc1,"inconclusive [inhibitor, single point]"
2,CC(C)(C)c1ccc(C(=O)CCC(=O)NCc2ccccc2)cc1,"inconclusive [inhibitor, partial curve, poor fit]"
3,CC(C)N(C(=O)COC(=O)c1cccc(N(C)C)c1)c1ccccc1,"inconclusive [inhibitor, single point]"
4,O=C(NCCc1ccc(F)cc1)C(=O)NCC1CCCN1S(=O)(=O)c1cccs1 (configuration not stated),active: 13.1 µM
5,CC12CCC(=O)C=C1CCC1C2CCC2(C)C(O)CCC12 (configuration not stated),inactive
6,Cc1ccc(-c2nnn(CC(=O)N(CC(=O)NC3CCCC3)c3cnc4ccccc4c3)n2)o1,"inconclusive [inhibitor, partial curve]"
7,Cc1cc(C(F)F)nn1CC(=O)NCc1ccc(Cl)cc1Cl,inactive
8,COc1ccc(CN(C)C(C)C(=O)Nc2cccc3ccccc23)cc1 (configuration not stated),"inconclusive [inhibitor, single point]"
9,Cc1ccc(S(=O)(=O)N2CCCCC2CCNC(=O)C(=O)Nc2ccccc2F)cc1 (configuration not stated),"inconclusive [inhibitor, single point]"
10,COc1ccc(C(C)=O)cc1COC(=O)CNC(=O)c1ccc(F)cc1,inactive
11,O=C(CSc1ccc(-c2ccco2)nn1)NC1CCCC1,inactive
12,Cc1ccccc1NC(=O)NCC1CCN(c2ccc(S(=O)(=O)N3CCOCC3)cc2)CC1,"inconclusive [inhibitor, partial curve, poor fit]"
13,COc1ccc(CN(C(=O)c2nsc(Cl)c2Cl)C(C(=O)NC2CCCC2)c2ccc(C)cc2)cc1 (configuration not stated),"inconclusive [inhibitor, partial curve, poor fit]"
14,CCOC(=O)CCc1c(C(=O)OCC)[nH]c(CC)c1C(=O)OCc1ccccc1,"inconclusive [inhibitor, partial curve]"
15,CC(=O)NC(=S)NNC(=O)C(c1ccccc1)c1ccccc1,"inconclusive [inhibitor, single point]"
16,O=C1CCCN1CC1CCCN(Cc2nc(COc3ccccc3)no2)C1 (configuration not stated),inactive
17,COc1ccc(-n2cc(-c3ccccc3)[n+]3c2CCCCC3)cc1,active: 1.04 µM
18,Cc1ccc(OCCNC(=O)Cc2ccc(S(=O)(=O)N3CCOCC3)s2)cc1,"inconclusive [inhibitor, full curve, poor fit]"
19,Cc1ccc(F)cc1NC(=O)CCc1c(C)nn(-c2ccc(N3CCCCC3)nn2)c1C,"inconclusive [inhibitor, single point]"
20,CCOC(=O)c1c(NC(=O)c2ccccc2Cl)sc2c1CCc1ccccc1-2,"inconclusive [inhibitor, single point]"
21,CC(=O)Nc1sc(N/N=C/c2ccccc2F)nc1-c1ccc(C)cc1,active: 8.28 µM
22,CC1CCCN(C(=S)Nc2ccc(Nc3ccccc3)cc2)C1 (configuration not stated),inactive
23,CC1CCN(C(=S)c2cn(Cc3ccc(F)cc3)c3ccccc23)CC1,"inconclusive [inhibitor, single point]"

row,Structure (SMILES),Potency
1,CCCCNc1c(-c2ccc(SC3CCCCC3)cc2)nc2ccccn12,"inconclusive [inhibitor, single point]"
2,CC(=O)Nc1ccc(S(=O)(=O)N2CCN(c3cc4c(cc3[N+](=O)[O-])n(C)c(=O)n4C)CC2)cc1,"inconclusive [inhibitor, single point]"
3,Cc1[nH]c2ccccc2c1C(=O)CSc1ccc(Cl)cc1,"inconclusive [inhibitor, single point]"
4,Cc1cc(=O)[nH]c(Nc2ccc(C(=O)OC(C)C)cc2)n1,"inconclusive [inhibitor, single point]"
5,Cc1cccc(C)c1NC(=O)Nc1ccc2c(c1)OCO2,"inconclusive [inhibitor, partial curve, poor fit]"
6,Cn1c(=O)[nH]c(=O)c2c1nc(N(CCO)Cc1ccccc1)n2Cc1ccccc1Cl,"inconclusive [inhibitor, single point]"
7,O=C(NC1CCCCC1)C(c1ccc(F)cc1)N(Cc1ccco1)C(=O)c1csnn1 (configuration not stated),"inconclusive [inhibitor, partial curve, poor fit]"
8,CCCCC1(C)Cc2ccccc2C(=S)N1 (configuration not stated),"inconclusive [inhibitor, partial curve]"
9,CCCCN(C(=O)c1cc(S(=O)(=O)N2CCCCCC2)ccc1OC)c1ccccc1,"inconclusive [inhibitor, partial curve]"
10,Cc1ccc(S(=O)(=O)N2CCCC2CNC(=O)c2ccc3c(c2)OCO3)cc1 (configuration not stated),"inconclusive [inhibitor, partial curve]"
11,Cc1c(NC(=S)NC(NC(=O)C(C)C)C(Cl)(Cl)Cl)c(=O)n(-c2ccccc2)n1C (configuration not stated),"inconclusive [inhibitor, single point]"
12,COc1cc(CNC2CCCC2)cc(Cl)c1OCc1ccc(F)cc1,"inconclusive [inhibitor, single point]"
13,CCn1c(/C=C/c2ccc([N+](=O)[O-])o2)nc2ccccc2c1=O,"inconclusive [inhibitor, partial curve]"
14,COc1ccccc1NC(=O)NNC(=O)c1ccc2ccccc2c1,"inconclusive [inhibitor, single point]"
15,O=C(C1CCCC1)N1CCN=C1SCc1cccc([N+](=O)[O-])c1,"inconclusive [inhibitor, single point]"
16,Cc1ccc(N(C(=O)c2ccc(S(=O)(=O)N3CCOCC3)cc2)C2C=CS(=O)(=O)C2)cc1C (configuration not stated),"inconclusive [inhibitor, partial curve, poor fit]"
17,COc1cccc2cc(C(C)N(CCCN3CCOCC3)C(=S)Nc3cccc(C)c3C)oc12 (configuration not stated),"inconclusive [inhibitor, single point]"
18,CNC(=S)NNC(=O)c1cc(C(C)(C)C)nn1Cc1ccc(F)cc1,"inconclusive [inhibitor, single point]"
19,COC(=O)C1CCN(C(=O)Nc2ccc(OC)cc2)CC1,inactive
20,COc1cc(S(=O)(=O)N2CCN(C(=O)c3ccccc3F)CC2)c(OC)cc1NC(C)=O,"inconclusive [inhibitor, single point]"
21,O=C(N/N=C/c1cn(Cc2ccccc2)c2ccccc12)c1ccncc1,"inconclusive [inhibitor, partial curve, poor fit]"
22,CC(C)OC(=O)/C(C#N)=C/c1c[nH]c2ccccc12,inactive
23,COc1ccc(C(=O)N(CCc2ccccc2)Cc2ccccc2)c(OC)n1,"inconclusive [inhibitor, partial curve, poor fit]"

row,Structure (SMILES),Potency
1,CCn1c(C)nnc1SCC(=O)Nc1ccc(Cl)cc1,inactive
2,CCNc1c(NC(=O)COc2ccc(Cl)cc2)c(=O)oc2ccccc12,"inconclusive [inhibitor, full curve]"
3,CCCC1=C(C(=O)OCC)C(c2cc(Cl)cc(OC)c2OCC(=O)OCC)NC(=O)N1 (configuration not stated),"inconclusive [inhibitor, partial curve]"
4,O=C(COC(=O)CNC(=O)c1ccccc1)Nc1cccc(Br)c1,inactive
5,CC(C)NC(=S)N/N=C/C1=CCC2CC1C2(C)C (configuration not stated),active: 13.1 µM
6,COc1ccc(NC2=C(NCCO)C(=O)c3ccccc3C2=O)cc1,active: 7.38 µM
7,CCN(CC)c1ccc(NC(=O)COc2ccc(C#N)cc2)cc1S(=O)(=O)Nc1ccc(OC)cc1,"inconclusive [inhibitor, partial curve]"
8,CC1(C)C([N+](=O)[O-])C(c2ccc(Cl)cc2)NC(c2ccc(Cl)cc2)C1[N+](=O)[O-] (configuration not stated),"inconclusive [inhibitor, single point]"
9,CCOC(=O)c1c(C=O)c(C)n(Cc2ccc(Cl)cc2)c1C,active: 1.85 µM
10,Oc1ccccc1N1CCN(CC(O)COCc2ccccc2Cl)CC1 (configuration not stated),"inconclusive [inhibitor, single point]"
11,CCCN1C(=O)c2ccccc2NC1c1ccc(O)c(OCC)c1 (configuration not stated),"inconclusive [inhibitor, single point]"
12,O=C(O)COc1ccc(S(=O)(=O)N2CCCC2)cc1,inactive
13,O=C(CSc1nnc(CNC(=O)c2ccccc2)o1)Nc1nccs1,inactive
14,CCOC(=O)N1CCC(N2C(=O)c3ccccc3C2Nc2cc(C)cc(C)c2)CC1 (configuration not stated),"inconclusive [inhibitor, partial curve]"
15,CN(Cc1ccccc1)S(=O)(=O)c1ccc(OCC(=O)NCc2ccncc2)cc1,active: 4.65 µM
16,COc1ccc(/C=N/NC(=O)c2cc(C34CC5CC(CC(C5)C3)C4)[nH]n2)cc1O,"inconclusive [inhibitor, partial curve]"
17,CC(=O)c1cc(OC(=O)c2ccncc2)ccc1OC(=O)c1ccncc1,inactive
18,CCOc1ccc(CNC(=O)CCS(=O)(=O)Cc2ccccc2C)cc1OC,"inconclusive [inhibitor, full curve, poor fit]"
19,Cc1[nH]c(C)c(S(=O)(=O)NCc2ccc(F)cc2)c1C(=O)N1CCCCC1,inactive
20,CCN(CC)S(=O)(=O)c1ccc(N2CCOCC2)c(NC(=O)c2ccc(OC)c([N+](=O)[O-])c2)c1,"inconclusive [inhibitor, partial curve, poor fit]"
21,N#C/C(=C\c1ccc(OCc2ccccc2)cc1)C(=O)Nc1nc2c(s1)CCN(Cc1ccccc1)C2,active: 8.28 µM

# Reference: PubChem BioAssay AID504832 (National Center for Advancing Translational Sciences (NCATS), 2011)
